Results published in the supplement of paper PMC11417369.
± gives the standard deviation of the averaged measurements. The list shows a part of the results.

test system: PfAP2-EXP AP2 domain (GST-tagged); test: gcPBM binding intensity (ln(normalized median fluorescence intensity)); higher = stronger DNA binding
Summary of the method: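 GST-tagged P. falciparum DNA-binding domains produced in E. coli were incubated for 1 h on an Agilent 4 × 180k array of primer-extended double-stranded 36-bp intergenic genomic probes with negative controls. Binding intensity is the highest Masliner-normalised natural-log median intensity across replicate spots of either probe orientation, with bound protein detected by Alexa488 anti-GST antibody at 488 nm.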

Sequence | gcPBM binding intensity (ln)
ATAACATAAGGAAATACACACATATATAAGTATATA [CACACA_site778] | 8.56 ± 0.28
AGGTTTCATTTAGCATGTACATATTATAAAAATTGT [XGTACX_site8448] | 8.77 ± 0.31
TCTGTTAATATTTATACACACATATATATATATATA [CACACA_site1139] | 10.1 ± 0.38
AAGATTACTTATATATGTACACATAATACAAATGTC [XGTACX_site520] | 8.39 ± 0.27
TTTTAGAGTGGTATATATTAATTTTTAATAAAAAAA [CACACA_negctrl_site1652] | 8.05 ± 0.28
TTTTTCATAAAAAAATAAAAAAAATTAACATAGAAA [XGTACX_negctrl_site11] | 8.48 ± 0.34
ATAATATATACTATATGTACATATCTTTTCCTCTTT [XGTACX_site5553] | 8.81 ± 0.45
TGTGCATAAATTTATGCACACATAAAAAAAAAAAAA [CACACA_site8954] | 8.85 ± 0.34
AATAAAAGAAGACAGAGTACACAGGTTGTATTTTCC [XGTACX_site7208] | 8.73 ± 0.44
ATAGTATCTGGTAGCTGTACGAGTCGTAGAGTGTAG [XGTACX_site2030] | 9.04 ± 0.38
AGAAAGGTGGTATTAAAAGAATAACCTATGAATAAA [GTGCAC_negctrl_site325] | 8.53 ± 0.59
TATAATAATAATTATTGTACGATTAGGTTAATTCAT [XGTACX_site1984] | 8.37 ± 0.23
TGGGAAGGGTGGGAAACTTTATCAAAAACTTATTAC [GTGCAC_negctrl_site16] | 8.87 ± 0.51
TATGTATTTTTTAAGTGTACCTATATATATATATAT [XGTACX_site7934] | 10.2 ± 0.3
AAATAATATTTTTTTTTTTTTTTTTTTTTATGTTAT [CACACA_negctrl_site809] | 8.05 ± 0.42
AAAAAAAAAAAAAAAACACACAAATCATAAATAAAT [CACACA_site478] | 8.57 ± 0.35
TGGTAGTATATCATAGAAATCATTGTATAACAAATA [XGTACX_negctrl_site569] | 8.32 ± 0.38
ATACAGTTGCATATGGTGCACGAATAATACACCTAT | 9.05 ± 0.23
ATAGTCTTAATGACTACACACCTAACTATGCATGCA [CACACA_site5084] | 9.985 ± 0.078
ATTTTTCTTTTTAATACACACAAAAGTGATACAAAC [CACACA_site3923] | 8.6 ± 0.48
TTTTTTTGTATTTGTTTATTTAATGATAAAATTAAA [CACACA_negctrl_site225] | 8.51 ± 0.45
TGTATTATATATACACAAATATTTATGTGTGTGTTT [XGTACX_negctrl_site475] | 8.38 ± 0.28
TTGTTCTATTTAAGTAGTACATACACACACATATAC [XGTACX_site8484] | 8.84 ± 0.3

Sequence | gcPBM binding intensity (ln)
ACATATATATATTCTACACACTTATAATATAATACA [CACACA_site2461] | 8.62 ± 0.46
CACAATACTTTCATCACACATATATATATATATATA [CACACA_site4677] | 10.1 ± 0.28
TATATATATATATATAGTACATATTTATATATGAAA [XGTACX_site8488] | 10.1 ± 0.36
GAATTAAAATAATACGTACACACATGTATAATACAT [CACACA_site1004] | 8.73 ± 0.23
TTTCGTTCATAAAAAAGTACATATGAGCAAAAGGTA [XGTACX_site8936] | 8.75 ± 0.3
ACTAAACTAATATGTACACACATATAACATTAATTT [CACACA_site7128] | 8.49 ± 0.2
TGCACAAAATTATGCACACACCTAAAATTAATTTTT [CACACA_site5596] | 8.93 ± 0.057
ATTCTAATCATATACACACCCATATATATATATATA [CACACA_site1774] | 10.3 ± 0.3
GGCAATGATTTTAGGTGTACTTAAAAATCAAATTAA [XGTACX_site8587] | 8.48 ± 0.14
TATAAAAAATAAAATACACACACATATATATATATA [CACACA_site8365] | 10.1 ± 0.2
TAATTTCTTATGTGCTATCTTATATAGAATTAATTT [CACACA_negctrl_site1726] | 8.54 ± 0.54
TTATTCTAAAAAGGGTGTACACAAACGAATGGAAAA [XGTACX_site5662] | 9.39 ± 0.52
AAAAAAAAAATTTAGGTGCATACAAATAAATTATAT [GTGCAC_site9521] | 8.46 ± 0.23
AGCAGTCAGCAGGACAGTACACAGTAGCCAGGAAAT [XGTACX_site4877] | 8.7 ± 0.62
ATGGCTAAAAGTTGCACACACACAAAAAAAAAAAAA [CACACA_site3289] | 8.41 ± 0.4
TATATATTAATATGCACACACAAGAAGTAATTATAA [CACACA_site3193] | 8.91 ± 0.36
ATTATATAACAAAATAGTACATATATTTATTACATC [XGTACX_site336] | 8.28 ± 0.31
GGCATACACGGACACACACACACACCGACATATATA [CACACA_site4493] | 8.95 ± 0.35
ATTATATATATTTATGCACACAAAATATATTATATA [CACACA_site9244] | 8.3 ± 0.26
TATATACATTTATATACACACCTATATTTATTTATA [CACACA_site7014] | 8.43 ± 0.51
TTTTTTTAACGGTGTGCACACAATATACAGAAAAAA [CACACA_site1415] | 9.09 ± 0.64
ATGTACCTATTTCATACACACACACCCACAAACAAA [CACACA_site8232] | 8.83 ± 0.47
TATATTGAAAATAAAACATGCAATCACTCATACATA [TGCATGCA_site248] | 8.61 ± 0.26

Sequence | gcPBM binding intensity (ln)
CAACAATTTCGTCATACACACATTCAGAATCTATAT [CACACA_site7171] | 8.56 ± 0.56
TATACATTTATGTACACACACATATAGGTATATTTA [CACACA_site7408] | 8.47 ± 0.099
AAAATATAATATATTACACACATATATTTTATAAGT [CACACA_site668] | 8.27 ± 0.38
CAAACTACAAAATTTCGTACGCATATATTTCAAGTA [XGTACX_site5154] | 8.57 ± 0.37
AAAACATACATATATACACACATATATATATATATA [CACACA_site1852] | 10.2 ± 0.23
TATGTTGGTTCTTTTAGTACATAATTACTAAATGTA [XGTACX_site8616] | 8.56 ± 0.29
CTTTTTTATATCTCTACACACATTTATAACAATTTG [CACACA_site1398] | 8.57 ± 0.2
CAAAAAAGTAAAACGTGTACATATATACATAAAAAT [XGTACX_site5639] | 9.09 ± 0.48
TTTAAACGTTATATAGTGCATGTCATATTTTATTAT | 8.71 ± 0.33
TACGTAATAATATGCACACAAATAAACTTTATAAAT [CACACA_site3501] | 8.71 ± 0.42
TGCAACAAAATAAACACACACACACTAACACAAAAA [CACACA_site7567] | 8.72 ± 0.45
TTTAAAAATAAAAGTACACACATAAACATATTGCAC [CACACA_site6784] | 8.94 ± 0.14
ATATTATATATATGTGCACACAAAAGATATATATAT [CACACA_site2125] | 9.445 ± 0.021
CTTAAAAAAACCTTAACACACATAAACTATAATTTA [CACACA_site3055] | 8.27 ± 0.49
TTTTCATTTGAAAGTCGTACAAGTTCGAAAAAAGGA [XGTACX_site6840] | 8.61 ± 0.43
ATAAGCAATAAAAAAACATGCATATTATTATCAACA [TGCATGCA_site1027] | 8.67 ± 0.37
TATGGTATATACAACACACACACATATGTATATATA [CACACA_site927] | 9.03
TCTTTAATATATAGTGCATGTAAATTTTACAATAAT [TGCATGCA_site242] | 9.04 ± 0.26
ATCAAGCACGGACACACACACACACCCAGACCCCCA [CACACA_site4360] | 9.16 ± 0.57
AAGTTAACACAACAGGTGCAAGAAAAGTTTTTAATG | 8.66 ± 0.028
AGTTAATGTTTATGTACACACGGTGGGTATATATTT [CACACA_site5785] | 8.77 ± 0.41
ATATATATATATATATATATAATTTTTTTTGTTTTT [TGCATGCA_negctrl_site453] | 10.3 ± 0.3
TATATTATTAATTAGGGTACAAAAAAAAAATTTTTT [XGTACX_site7762] | 8.6 ± 0.54

Sequence | gcPBM binding intensity (ln)
GATATCAAAAAGATGGGTACATATATTTAAGTTCAT [XGTACX_site3822] | 8.38 ± 0.4
TAGGAAAAGAAAAGCACACACATAAATAGATATATA [CACACA_site6382] | 8.71 ± 0.53
TTAAATAGAAATAAGACTAACAATGAACCAAAAAAA [CACACA_negctrl_site991] | 8.87 ± 0.43
TTTTGAAAAAGTTGCACACAAAATTTAAAAAAAAAA [CACACA_site1632] | 8.4 ± 0.43
TCGTATATGGATTTTGCACACAATTTTAATTTAAAT [CACACA_site4635] | 9 ± 0.28
ATGATTTGTCTGAAATGTACATATATATATATATAT [XGTACX_site5247] | 10.3 ± 0.47
AACAAATAAACAAAATTGGAAAATAAAAATATCAAA [CACACA_negctrl_site1125] | 8.62 ± 0.33
TAATAATTTTATAAAGTGCATAAAAATAAAAATTTT | 8.49 ± 0.2
TTTTTTTTTTTTTTAATTAATTACCTTTGAATGTGT [CACACA_negctrl_site393] | 7.92 ± 0.64
ATTATTTTTTTATGTTGTACATAATATTTTTTAAAA [XGTACX_site1666] | 8.82 ± 0.45
TAATATTTATAAAATAGTACACAGAAAAAGCATTTT [XGTACX_site8948] | 8.72 ± 0.47
TTCCAACATTGTTTTTGTACATAATTAACTGTTATT [XGTACX_site5224] | 8.84 ± 0.44
CTTAAAAATAACTGCACACAAAAATAAATACCTTAT [CACACA_site2793] | 8.56 ± 0.46
ATATATATGGATGGACGTACGTATGTATGTAATTTC [XGTACX_site4135] | 9.26 ± 0.39
ATATATATTTTATTATGTACATATAAATATTACACA [XGTACX_site4062] | 8.61 ± 0.31
GAAAAAATATATAAATGTACATATAATAATATCATA [XGTACX_site6788] | 8.51 ± 0.3
AAATATTATGTGGCAAGTACATAAAGAAAATGCTTA [XGTACX_site3356] | 8.48 ± 0.47
ATAATAAGGTTAAGCACACATATTACAGATATAACT [CACACA_site5791] | 8.48 ± 0.52
AATAATAATAATAATAGTACATATTATGAATATGAT [XGTACX_site5730] | 8.29 ± 0.3
TTAAAAATGATTGAATGTACAGATTAATATAATTTT [XGTACX_site7394] | 8.22 ± 0.35
